Test results: publication PMC9911399, “Two distinct binding modes provide the RNA-binding protein RbFox with extraordinary sequence specificity”
Changes are numbered by the printed parent chain; changes in the protein carry UniProt numbers. The list shows a part of the results.

T1: RBFOX1 RRM (Homo sapiens, UniProt Q9NWB1 109-208)
T1 sequence: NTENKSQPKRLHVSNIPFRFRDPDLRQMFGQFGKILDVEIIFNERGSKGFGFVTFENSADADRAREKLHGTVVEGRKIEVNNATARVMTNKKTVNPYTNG

B1: GCAUUGC (DNA:RNA)
RNA: GGGAGACCGGAAUUCAGAUUGUCCGCAUUGCUUAAAUCCCGUCGUAGCCACCA
DNA 1: CAATCTGAATTCCGGTCTCCC
DNA 2: TGGTGGCTACGACGGGATT
B2: GUUGCCU (DNA:RNA)
RNA: B1 RNA with C26U, A27U, U28G, U29C, G30C, C31U
DNA 1: CAATCTGAATTCCGGTCTCCC
DNA 2: TGGTGGCTACGACGGGATT
B3: UUAGAUU (DNA:RNA)
RNA: B1 RNA with G25U, C26U, U28G, U29A, G30U, C31U
DNA 1: CAATCTGAATTCCGGTCTCCC
DNA 2: TGGTGGCTACGACGGGATT
B4: ACCGAGU (DNA:RNA)
RNA: B1 RNA with G25A, A27C, U28G, U29A, C31U
DNA 1: CAATCTGAATTCCGGTCTCCC
DNA 2: TGGTGGCTACGACGGGATT
B5: CCGUAAU (DNA:RNA)
RNA: B1 RNA with G25C, A27G, U29A, G30A, C31U
DNA 1: CAATCTGAATTCCGGTCTCCC
DNA 2: TGGTGGCTACGACGGGATT
B6: UCAAUGA (DNA:RNA)
RNA: B1 RNA with G25U, U28A, C31A
DNA 1: CAATCTGAATTCCGGTCTCCC
DNA 2: TGGTGGCTACGACGGGATT
B7: CUGCGCC (DNA:RNA)
RNA: B1 RNA with G25C, C26U, A27G, U28C, U29G, G30C
DNA 1: CAATCTGAATTCCGGTCTCCC
DNA 2: TGGTGGCTACGACGGGATT
B8: GGACAUC (DNA:RNA)
RNA: B1 RNA with C26G, U28C, U29A, G30U
DNA 1: CAATCTGAATTCCGGTCTCCC
DNA 2: TGGTGGCTACGACGGGATT
B9: AGAACUU (DNA:RNA)
RNA: B1 RNA with G25A, C26G, U28A, U29C, G30U, C31U
DNA 1: CAATCTGAATTCCGGTCTCCC
DNA 2: TGGTGGCTACGACGGGATT
B10: CUAGGGA (DNA:RNA)
RNA: B1 RNA with G25C, C26U, U28G, U29G, C31A
DNA 1: CAATCTGAATTCCGGTCTCCC
DNA 2: TGGTGGCTACGACGGGATT
B11: AACUCCG (DNA:RNA)
RNA: B1 RNA with G25A, C26A, A27C, U29C, G30C, C31G
DNA 1: CAATCTGAATTCCGGTCTCCC
DNA 2: TGGTGGCTACGACGGGATT
B12: UCUAUGU (DNA:RNA)
RNA: B1 RNA with G25U, A27U, U28A, C31U
DNA 1: CAATCTGAATTCCGGTCTCCC
DNA 2: TGGTGGCTACGACGGGATT
B13: UGUCCUU (DNA:RNA)
RNA: GGGAGACCGGAAUUCAGAUUGUCCUGUCCUUUUAAAUCCCGUCGUAGCCACCA
DNA 1: CAATCTGAATTCCGGTCTCCC
DNA 2: TGGTGGCTACGACGGGATT
B14: UACCCAA (DNA:RNA)
RNA: B13 RNA with G26A, U27C, U30A, U31A
DNA 1: CAATCTGAATTCCGGTCTCCC
DNA 2: TGGTGGCTACGACGGGATT
B15: UGUUACA (DNA:RNA)
RNA: B13 RNA with C28U, C29A, U30C, U31A
DNA 1: CAATCTGAATTCCGGTCTCCC
DNA 2: TGGTGGCTACGACGGGATT
B16: UAUGGUC (DNA:RNA)
RNA: B13 RNA with G26A, C28G, C29G, U31C
DNA 1: CAATCTGAATTCCGGTCTCCC
DNA 2: TGGTGGCTACGACGGGATT
B17: ACUGAAA (DNA:RNA)
RNA: B1 RNA with G25A, A27U, U28G, U29A, G30A, C31A
DNA 1: CAATCTGAATTCCGGTCTCCC
DNA 2: TGGTGGCTACGACGGGATT
B18: CACAGCC (DNA:RNA)
RNA: B1 RNA with G25C, C26A, A27C, U28A, U29G, G30C
DNA 1: CAATCTGAATTCCGGTCTCCC
DNA 2: TGGTGGCTACGACGGGATT
B19: GUCGCUC (DNA:RNA)
RNA: B1 RNA with C26U, A27C, U28G, U29C, G30U
DNA 1: CAATCTGAATTCCGGTCTCCC
DNA 2: TGGTGGCTACGACGGGATT
B20: CCGAUCG (DNA:RNA)
RNA: B1 RNA with G25C, A27G, U28A, G30C, C31G
DNA 1: CAATCTGAATTCCGGTCTCCC
DNA 2: TGGTGGCTACGACGGGATT
B21: CAGACCC (DNA:RNA)
RNA: B1 RNA with G25C, C26A, A27G, U28A, U29C, G30C
DNA 1: CAATCTGAATTCCGGTCTCCC
DNA 2: TGGTGGCTACGACGGGATT
B22: UGUUGAC (DNA:RNA)
RNA: B13 RNA with C28U, C29G, U30A, U31C
DNA 1: CAATCTGAATTCCGGTCTCCC
DNA 2: TGGTGGCTACGACGGGATT
B23: GAGAUCC (DNA:RNA)
RNA: B1 RNA with C26A, A27G, U28A, G30C
DNA 1: CAATCTGAATTCCGGTCTCCC
DNA 2: TGGTGGCTACGACGGGATT
B24: AUAUGAG (DNA:RNA)
RNA: B1 RNA with G25A, C26U, U29G, G30A, C31G
DNA 1: CAATCTGAATTCCGGTCTCCC
DNA 2: TGGTGGCTACGACGGGATT
B25: AACAACG (DNA:RNA)
RNA: GGGAGACCGGAAUUCAGAUUGUCCAACAACGUUAAAUCCCGUCGUAGCCACCA
DNA 1: CAATCTGAATTCCGGTCTCCC
DNA 2: TGGTGGCTACGACGGGATT
B26: AAGGCAC (DNA:RNA)
RNA: B25 RNA with C27G, A28G, A29C, C30A, G31C
DNA 1: CAATCTGAATTCCGGTCTCCC
DNA 2: TGGTGGCTACGACGGGATT
B27: AACCUAC (DNA:RNA)
RNA: B25 RNA with A28C, A29U, C30A, G31C
DNA 1: CAATCTGAATTCCGGTCTCCC
DNA 2: TGGTGGCTACGACGGGATT
B28: ACGGUGA (DNA:RNA)
RNA: B1 RNA with G25A, A27G, U28G, C31A
DNA 1: CAATCTGAATTCCGGTCTCCC
DNA 2: TGGTGGCTACGACGGGATT
B29: GGGUCAA (DNA:RNA)
RNA: B1 RNA with C26G, A27G, U29C, G30A, C31A
DNA 1: CAATCTGAATTCCGGTCTCCC
DNA 2: TGGTGGCTACGACGGGATT
B30: AUAAGAC (DNA:RNA)
RNA: B25 RNA with A26U, C27A, A29G, C30A, G31C
DNA 1: CAATCTGAATTCCGGTCTCCC
DNA 2: TGGTGGCTACGACGGGATT
B31: CGUAACC (DNA:RNA)
RNA: B25 RNA with A25C, A26G, C27U, G31C
DNA 1: CAATCTGAATTCCGGTCTCCC
DNA 2: TGGTGGCTACGACGGGATT

molecular target: T1, RBFOX1 RRM; test: EMSA; HiTS-Eq, 1 nM pool, 10 min; buffer printed only for the single-RNA assays: 10 mM Tris pH 7.5, 150 mM NaCl, 3.4 mM EDTA, 0.001% NP-40, 30 C; conditions: tags: His6 N-terminal (pET28a); label: 5' 32P
In short: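 Purified RbFox RRM, wild type or mutant, was incubated for 10 min in 50 µL with 1 nM of a 5′-radiolabelled RNA pool carrying 7 randomized nucleotides, whose flanks were annealed to DNA oligonucleotides, over a series of increasing protein concentrations. Unbound RNA was resolved on 8% native PAGE, cut out, reverse-transcribed, barcoded by PCR and sequenced on an Illumina HiSeq 2500. Relative association constants were derived from changes in read counts for each RNA species versus the control reaction and normalised to the cognate motif.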

Binder | binding signal
B1 | 0.0184 KA relative to UGCAUGU
B2 | 0.0199 KA relative to UGCAUGU
B3 | 0.0079 KA relative to UGCAUGU
B4 | 0.00488 KA relative to UGCAUGU
B5 | 0.00332 KA relative to UGCAUGU
B6 | 0.00743 KA relative to UGCAUGU
B7 | 0.0118 KA relative to UGCAUGU
B8 | 0.0144 KA relative to UGCAUGU
B9 | 0.00341 KA relative to UGCAUGU
B10 | 0.00294 KA relative to UGCAUGU
B11 | 0.00475 KA relative to UGCAUGU
B12 | 0.0145 KA relative to UGCAUGU
B13 | 0.0132 KA relative to UGCAUGU
B14 | 0.0006 KA relative to UGCAUGU
B15 | 0.0129 KA relative to UGCAUGU
B16 | 0.0175 KA relative to UGCAUGU

Binder | binding signal
B17 | 0.00547 KA relative to UGCAUGU
B18 | 0.00207 KA relative to UGCAUGU
B19 | 0.0171 KA relative to UGCAUGU
B20 | 0.012 KA relative to UGCAUGU
B21 | 0.00122 KA relative to UGCAUGU
B22 | 0.0252 KA relative to UGCAUGU
B23 | 0.0136 KA relative to UGCAUGU
B24 | 0.00912 KA relative to UGCAUGU
B25 | 0.00453 KA relative to UGCAUGU
B26 | 0.0111 KA relative to UGCAUGU
B27 | 0.00216 KA relative to UGCAUGU
B28 | 0.0117 KA relative to UGCAUGU
B29 | 0.00562 KA relative to UGCAUGU
B30 | 0.00331 KA relative to UGCAUGU
B31 | 0.003 KA relative to UGCAUGU
